Here are results for 51 molecules from publication PMC12040169 (PLOS Biology, 2025).

The other results are listed elsewhere or left out.

This assay concerns T1, C. trachomatis L2/434/Bu expressing GFP (CTL2-GFP).
T1 construct: L2/434/Bu GFP intracellular growth in HeLa cells
On the set-up: species or system HeLa; C. trachomatis total inclusion area by high-content imaging, normalised to DMSO. Particulars: total inclusion area; 28.5 h, 10 µM; inhibitor. An outline of the steps: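 Host cell viability was gauged from Hoechst-stained nuclei counts, while chlamydial growth was taken from total inclusion area and inclusion number per well. Cells were fixed and imaged by high-content microscopy once bulk GFP and resorufin fluorescence had been measured.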
Turning to `CCCC/C=C/c1cncc(NCCO)n1` [CBK065419], the “% of control remaining” value came out at 110.555.
Consider `O=C(NCC(F)(F)F)c1ccc(-c2ccccc2)nc1NCc1cccnc1` [CBK076551], for which the “% of control remaining” value was 116.005.
For the molecule `Cc1ccc(NC(=O)CN2C(=O)S/C(=C\c3ccc4c(c3)n(C)c(=O)n4C)C2=O)cc1` [CBK264501], the “% of control remaining” value was 94.7928.
`CC(Sc1nc(-c2ccccc2)nc2ccccc12)C(=O)Nc1ccccc1C(F)(F)F` (stereo not drawn) [CBK265795]: the “% of control remaining” value was 109.89.
For the molecule `O=C(NCc1ccccc1)C1(c2ccccc2)CCCC1` [CBK149540], the “% of control remaining” value is 115.379.
The result for `O=C(Nc1cccc(F)c1)N1CCC(Cc2cccnc2)CC1` [CBK306369] reads 48.9624.
In the case of `CCOc1cc([N+](=O)[O-])cc(C=O)c1OC(C)C(=O)O` (stereo not drawn) [CBK264642], the “% of control remaining” value is recorded as 111.754.
With `Cc1ccc(/C(N)=N/OC(=O)COc2cccc3ccccc23)cc1` [CBK263009], the “% of control remaining” value is 107.451.
For `C=CCN1C(=O)CC2(C1=O)C(=O)N(CCCN(C)S(C)(=O)=O)c1ccc(Cl)cc12` (stereo not drawn) [CBK075432], the “% of control remaining” value is listed as 109.607.
The figure for `Cc1nn(C(C)C)c(C)c1CN1CCC(c2c(C(=O)NC(C)C)sc3ccccc23)C1` (stereo not drawn) [CBK285890] is 96.2191; for `CCCC(=O)N(C)C1CCC2(CC1)CNC(=O)c1cc(C)ccc1O2` (stereo not drawn) [CBK281694] it is 99.7582; for `O=C(CO)N1CC2(CCN(Cc3ccc(OC(F)(F)F)cc3)CC2)c2ccccc21` [CBK131493] it is 89.1172.
`CC(=O)NCCc1nc2ccc(NC(=O)Cn3nc(C)c4ccccc4c3=O)cc2n1C` [CBK268249]: the “% of control remaining” value came to 94.5707.
On to `CC(=O)N1CCN(C(=O)C(C)S(=O)(=O)c2ccccc2F)CC1` (stereo not drawn) [CBK305603], for which the “% of control remaining” value was determined as 48.6673.
Take `CC(C)CNC(=O)N1CCN(CCN2CCOCC2)CC1` [CBK155826]: the “% of control remaining” value is on record as 93.9427.
As to `Cc1cc(C)n(C(C)CC(=O)N2CCCCC2CCN2CCCC2)n1` (stereo not drawn) [CBK282078], the “% of control remaining” value was 104.237.
The figure for `Cc1cc2ncn(CC(=O)NCc3ccccc3)c2cc1C` [CBK200213] is 50.4769; for `COc1cc(/C=C/c2cc(C(F)(F)F)[nH]c(=O)n2)c(Cl)cc1O` [CBK287936] it is 40.7173.
As to `Cc1cc(Cl)cc(Br)c1OCCN1CCN(C)CC1` [CBK269668C], the “% of control remaining” value stood at 75.9539.
On to `COc1ccccc1N1CCN(C(=O)CC2(CC(=O)O)CCCC2)CC1` [CBK296137], for which the “% of control remaining” value amounted to 68.7763.
The result for `CCN(CC)C(=O)CN1CCC(Oc2nccnc2OCCN2CCOCC2)CC1` [CBK082928] reads 95.7077; that for `Cc1n[nH]c(-c2ccccc2NC(=O)Cc2sc(C)nc2-c2cccs2)n1` [CBK297737], 99.9794.
The figure for `CC(C)(C)C(=O)N1CCCC(c2cc3cccnc3[nH]2)C1` (stereo not drawn) [CBK284945] is 73.9853; for `CC(=O)c1cccc(NC(=O)c2cccn(Cc3ccc(C)cc3)c2=O)c1` [CBK294427] it is 105.694; for `CN1CCN(c2nc(-c3ccco3)cn3ccnc23)CC1` [CBK038045] it is 84.5414.
As for `CCCCOC(=O)CCc1nc2ccccc2nc1O` [CBK264523], the “% of control remaining” value was found to be 111.242.
Regarding `Cc1ccc(S(=O)(=O)N2CCC(C(=O)NC3(C(=O)O)CCCCC3)CC2)cc1` [CBK295644], the “% of control remaining” value is 106.437.
The figure for `C1=Nn2c(nnc2-c2ccncc2)SC(c2ccccc2)=C1` [CBK288535] is 72.6648; for `CCOCCCNC(=O)c1ccc(-c2cc(Oc3ccc(OC)cc3)ncn2)cc1` [CBK291209] it is 80.7896.
In the case of `N#Cc1nc(COc2ccc(Br)cc2)oc1NC1CC1` [CBK266470], the “% of control remaining” value was determined as 106.626.
Turning to `CCCCC(=O)NC1CCN(C(=O)c2cccc(C#N)c2)CC1` [CBK306309], the “% of control remaining” value is 65.5934.
With `CCOc1cc(NC2CCN(C(=O)C(C)(C)C3CCCC3)CC2)ncn1` [CBK304430], the “% of control remaining” value amounted to 42.3409.
On to `CC(=O)Nc1cccc(-c2ccc(N3CCN(CCN(C)C)CC3)nc2)c1` [CBK036857], for which the “% of control remaining” value worked out at 135.168.
For the molecule `CCOC(=O)c1c(NC(=S)NCc2ccccn2)sc2c1CCCCC2` [CBK266954], the “% of control remaining” value was determined as 116.502.
On to `O=C1COc2ccccc2C/C=C/CC2(CCN(CC3CCOCC3)CC2)CN1` [CBK292128], for which the “% of control remaining” value amounted to 104.395.
Turning to `O=C1NCCNC(=O)C2(C/C=C/COc3ccccc31)CCCNC2` (stereo not drawn) [CBK292171], the “% of control remaining” value turned out to be 113.649.
With `CC(=O)c1ccc(-c2nccnc2N(C)Cc2ccccc2)s1` [CBK037504], the “% of control remaining” value is 130.194.
The figure for `O=C(Nc1cccc(Cl)c1Cl)c1cnc2n(c1=O)CCS2` [CBK287380] is 65.7578; for `OC(CN1CCC(O)(c2ccc(F)cc2)CC1)c1ccc(Cl)cc1` (stereo not drawn) [CBK283311] it is 86.5556.
The result for `Nc1ncnc(NCCc2c[nH]c3ccccc23)c1[N+](=O)[O-]` [CBK267283] reads 52.887; that for `COc1ccc(CC(=O)N2CCC(Cc3ccccc3-c3ccccc3)(C(N)=O)CC2)cc1` [CBK285911], 117.228; that for `COc1ccccc1OCC(O)CN1CCN(C(=O)c2ccccc2)CC1` (stereo not drawn) [CBK074386C], 95.621.
The result for `CCOC(=O)c1cnn(C2CCCN(Cc3c(C)n[nH]c3C)C2)c1` (stereo not drawn) [CBK304059] reads 82.8589; that for `O=C(c1c(F)cccc1F)N1CCC(c2cc3cccnc3[nH]2)CC1` [CBK284997], 95.967; that for `Cc1cc(NC(=O)CCN2CCCCC2)no1` [CBK017079], 97.4373.
In the case of `O=C(NCc1cccs1)c1ccc2c(=O)n3c(nc2c1)CCN(Cc1ccccc1)CC3` [CBK286448], the “% of control remaining” value is given as 78.4214.
The result for `O=C(Nc1nc2c(s1)CCCCC2)C1CN(S(=O)(=O)c2ccc(F)cc2)C1` [CBK286005] reads 96.4004; that for `COc1ccccc1C1(NC(=O)c2cnsc2)CCCC1` [CBK283643], 107.962; that for `O=C1c2ccc(S(=O)(=O)c3ccc4c(c3)C(=O)N(c3nccs3)C4=O)cc2C(=O)N1c1nccs1` [CBK261335], 94.6289.
The figure for `Cc1noc(C)c1NC(=O)c1ccno1` [CBK200394] is 103.718.
In the case of `O=S(=O)(/N=C(/c1ccc(Cl)cc1)N1CCOCC1)c1ccccc1` [CBK293950], the “% of control remaining” value came to 102.221.
